The list shows a part of the results. Sequences were assembled here from the parent chain. Values near 0.05 are background.
B1: TEV protease; numbered along this chain (parent)
chain: MGESLFKGPRDYNPISSSICHLTNESDGHTTSLYGIGFGPFIITNKHLFRRNNGTLVVQSLHGVFKVKDTTTLQQHLVDGRDMIIIRMPKDFPPFPQKLKFREPQREERICLVTTNFQTKSMSSMVSDTSCTFPSGDGIFWKHWIQTKDGQCGSPLVSTRDGFIVGIHSASNFTNTNNYFTSVPKNFMELLTNQEAQQWVSGWRLNADSVLWGGHKVFMVKPEEPFQPVKEATQL

Variants of: B1
Assay: raw area under fraction-flipped curve 0-4 h after induction (AUC4h, not background-subtracted), DNA-recorder readout of cleavage of the substrate (dimensionless); higher = more cleavage of the substrate by the protease variant
Conditions: temperature: 34 °C; time window: 0-4 h after rhamnose induction
Procedure: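 In vivo DNA recorder in E. coli TOP10(DE3) ΔrhaA at 34 °C. Each TEVp single-site mutant (parent TEVp 0) is paired with a single-site variant of the 7-mer TEVs (canonical ENLYFQ|S). The substrate sits between flexible linkers in a Bxb1-sfGFP-TEVs-SsrA fusion, so cleavage stabilises Bxb1 and speeds flipping of a recombination array, read by NGS. The value is the raw area under the fraction-flipped curve over 0-4 h after rhamnose induction (AUC4h), with ≥20 reads per time point. It is not background-subtracted; inactive controls average about 0.047.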
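Note: Bxb1 expression induced with 0.2% (w/v) L-rhamnose at OD600 near 0.5, cultures sampled hourly, flipped fraction per protease–substrate barcode pair counted by paired-end Illumina sequencing.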

Variant	area with substrate ENLYFAS	area with substrate ENLYFCS	area with substrate ENLYFDS	area with substrate ENLYFES	area with substrate ENLYFFS	area with substrate ENLYFHS	area with substrate ENLYFIS	area with substrate ENLYFMS	area with substrate ENLYFNS	area with substrate ENLYFPS	area with substrate ENLYFRS	area with substrate ENLYFTS	area with substrate ENLYFVS	area with substrate ENLYFYS	area with substrate ENLYFGS	area with substrate ENLYFKS	area with substrate ENLYFLS	area with substrate ENLYFSS	area with substrate ENLYFWS
MGESLFKGPRDYNPISSSICHLTNESDGHTTSLYGIGFGPFIITNKDLFRRNNGTLVVQSLHGVFKVKDTTTLQQHLVDGRDMIIIRMPKDFPPFPQKLKFREPQREERICLVTTNFQTKSMSSMVSDTSCTFPSGDGIFWKHWIQTKDGQCGSPLVSTRDGFIVGIHSASNFTNTNNYFTSVPKNFMELLTNQEAQQWVSGWRLNADSVLWGGHKVFMVKPEEPFQPVKEATQL [H47D]	0.0492	0.0474	0.0622	0.0619	0.0668	0.0077	0.0569	0.0625	0.0624	0.0612	0.0665	0.0426	0.0609	0.062	–	–	–	–	–
MGESLFKGPRDYNPISSSICHLTNESDGHTTSLYGIGFGPFIITNKFLFRRNNGTLVVQSLHGVFKVKDTTTLQQHLVDGRDMIIIRMPKDFPPFPQKLKFREPQREERICLVTTNFQTKSMSSMVSDTSCTFPSGDGIFWKHWIQTKDGQCGSPLVSTRDGFIVGIHSASNFTNTNNYFTSVPKNFMELLTNQEAQQWVSGWRLNADSVLWGGHKVFMVKPEEPFQPVKEATQL [H47F]	0.0559	0.06	0.0618	0.0527	0.0602	0.0629	0.0632	0.0537	0.0522	0.0521	0.0524	0.0616	–	–	0.0608	0.0701	0.0629	0.0576	–
MGESLFKGPRDYNPISSSICHLTNESDGHTTSLYGIGFGPFIITNKYLFRRNNGTLVVQSLHGVFKVKDTTTLQQHLVDGRDMIIIRMPKDFPPFPQKLKFREPQREERICLVTTNFQTKSMSSMVSDTSCTFPSGDGIFWKHWIQTKDGQCGSPLVSTRDGFIVGIHSASNFTNTNNYFTSVPKNFMELLTNQEAQQWVSGWRLNADSVLWGGHKVFMVKPEEPFQPVKEATQL [H47Y]	0.0514	0.0594	0.049	0.0603	0.055	0.0377	0.0553	0.0579	0.0585	0.06	0.062	0.0441	0.0538	–	0.0466	0.0767	0.0534	–	0.0566
MGESLFKGPRDYNPISSSICHLTNESDGHTTSLYGIGFGPFIITNKKLFRRNNGTLVVQSLHGVFKVKDTTTLQQHLVDGRDMIIIRMPKDFPPFPQKLKFREPQREERICLVTTNFQTKSMSSMVSDTSCTFPSGDGIFWKHWIQTKDGQCGSPLVSTRDGFIVGIHSASNFTNTNNYFTSVPKNFMELLTNQEAQQWVSGWRLNADSVLWGGHKVFMVKPEEPFQPVKEATQL [H47K]	0.0655	0.0538	–	0.0634	0.007	0.0634	–	0.0606	–	0.0656	–	0.0477	–	–	–	0.0713	0.0682	–	0.0638
MGESLFKGPRDYNPISSSICHLTNESDGHTTSLYGIGFGPFIITNKLLFRRNNGTLVVQSLHGVFKVKDTTTLQQHLVDGRDMIIIRMPKDFPPFPQKLKFREPQREERICLVTTNFQTKSMSSMVSDTSCTFPSGDGIFWKHWIQTKDGQCGSPLVSTRDGFIVGIHSASNFTNTNNYFTSVPKNFMELLTNQEAQQWVSGWRLNADSVLWGGHKVFMVKPEEPFQPVKEATQL [H47L]	0.0578	0.0525	–	0.0555	0.0667	0.0416	0.0451	0.0602	0.0539	0.0638	0.0488	0.0152	0.0805	0.0675	0.06	0.0709	0.0796	–	0.0525
MGESLFKGPRDYNPISSSICHLTNESDGHTTSLYGIGFGPFIITNKNLFRRNNGTLVVQSLHGVFKVKDTTTLQQHLVDGRDMIIIRMPKDFPPFPQKLKFREPQREERICLVTTNFQTKSMSSMVSDTSCTFPSGDGIFWKHWIQTKDGQCGSPLVSTRDGFIVGIHSASNFTNTNNYFTSVPKNFMELLTNQEAQQWVSGWRLNADSVLWGGHKVFMVKPEEPFQPVKEATQL [H47N]	0.0469	0.0539	0.0637	0.0575	–	0.0636	0.0528	0.0547	0.0521	0.0572	0.0665	0.079	0.0477	0.0617	0.0652	0.077	0.0538	–	0.0559
MGESLFKGPRDYNPISSSICHLTNESDGHTTSLYGIGFGPFIIWNKHLFRRNNGTLVVQSLHGVFKVKDTTTLQQHLVDGRDMIIIRMPKDFPPFPQKLKFREPQREERICLVTTNFQTKSMSSMVSDTSCTFPSGDGIFWKHWIQTKDGQCGSPLVSTRDGFIVGIHSASNFTNTNNYFTSVPKNFMELLTNQEAQQWVSGWRLNADSVLWGGHKVFMVKPEEPFQPVKEATQL [T44W]	0.0397	0.052	0.0444	0.0594	0.0688	0.0478	0.0367	0.0489	0.0633	0.0482	0.0431	0.051	0.0497	–	–	0.0525	–	0.0502	0.0386
MGESLFKGPRDYNPISSSICHLTNESDGHTTSLYGIGFGPFIITNKHLFRRNNRTLVVQSLHGVFKVKDTTTLQQHLVDGRDMIIIRMPKDFPPFPQKLKFREPQREERICLVTTNFQTKSMSSMVSDTSCTFPSGDGIFWKHWIQTKDGQCGSPLVSTRDGFIVGIHSASNFTNTNNYFTSVPKNFMELLTNQEAQQWVSGWRLNADSVLWGGHKVFMVKPEEPFQPVKEATQL [G54R]	0.0488	0.0647	0.0639	0.0639	0.069	0.064	0.0631	0.056	0.037	0.0607	0.0543	0.064	0.0522	–	–	0.0496	0.0603	–	0.0547
